Laboratory results from PubChem BioAssay AID894 (National Center for Advancing Translational Sciences (NCATS), 2007).
“And” between values parts separate entries of the source, which are not always exact repeats. Equal entries are not always repeated. In all, about 150,000 compounds went through this assay and about 6,500 (4.3%) were called active. Inconclusive means that the source gave no clear call. Such entries were picked first, then a sample of the others. Calls follow the shape of the dose curve; as a rule, active = well fitted inhibition curve with a large enough effect (not every such curve was filed as active); inconclusive = small, poorly fitted or top-dose-only effect, or another doubt; inactive = no such curve, though single readings can be large or run the other way. Potencies of inconclusive entries are left out as doubtful fits.

These molecules were tested against 15-hydroxyprostaglandin dehydrogenase [NAD(+)] (Homo sapiens) (UniProt P15428) (assay: qHTS Assay for Inhibitors of HPGD (15-Hydroxyprostaglandin Dehydrogenase)). Conditions: purified HPGD, NADH fluorescence kinetic, PGE2 substrate; activity change, negative = inhibition: stronger effect = lower value.
How it was run: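 20 nM HPGD preincubated 15 min at room temperature with compound in 50 mM Tris-HCl pH 8, 0.01% Tween 20. Started with 1 mM NAD+ and 30 uM prostaglandin E2; NADH fluorescence (360/450 nm) read 5 times over 30-s intervals, last minus first.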
% is scaled to controls: 0 for no effect and ±100 for the full control effect; potency is read from the fitted curve at half-maximal effect; tags tell the direction and shape of the fitted curve.

Chain of UniProt P15428 (P15428 whole entry, looked up): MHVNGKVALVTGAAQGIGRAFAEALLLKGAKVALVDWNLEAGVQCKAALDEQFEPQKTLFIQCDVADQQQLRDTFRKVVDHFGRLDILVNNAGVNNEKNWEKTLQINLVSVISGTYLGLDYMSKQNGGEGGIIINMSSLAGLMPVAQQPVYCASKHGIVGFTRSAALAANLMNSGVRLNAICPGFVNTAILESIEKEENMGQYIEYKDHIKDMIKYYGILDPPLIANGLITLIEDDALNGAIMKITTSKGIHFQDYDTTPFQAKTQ

Row | Compound | Potency | activity change, negative = inhibition
1 | Cc1onc(-c2c(F)cccc2Cl)c1C(=O)OCN1C(=O)c2ccccc2C1=O | active: 1.41 µM | –
2 | Cc1csc(NC(=O)COc2ccc3c(C)cc(=O)oc3c2)n1 | inconclusive [inhibitor, full curve] | –
3 | CCOc1c2ccc(C(=O)NCc3ccc4c(c3)OCO4)cc2nn1CCOC | inconclusive [inhibitor, partial curve] | –
4 | COc1ccc(NC(=O)N2CCCc3ccccc32)cc1 | – | inactive: -5.54%
5 | CCCCn1c(SCC(=O)NCc2ccco2)nc2cc(S(N)(=O)=O)ccc21 | inconclusive [inhibitor, partial curve] | –
6 | COc1ccc(/C=C(\C#N)C(=O)N2CCOCC2)cc1Br | active: 15.8 µM | –
7 | CCOC(=O)c1oc2ccccc2c1NC(=O)COc1cccc(OC)c1 | inconclusive [inhibitor, partial curve] | –
8 | Cc1cc(C)c2c(C)nn(-c3ccccc3)c2n1 | inconclusive [inhibitor, full curve] | –
9 | O=S(=O)(NCC(c1ccco1)N1CCOCC1)c1ccc(Cl)cc1 (stereo not drawn) | – | inactive: -11.5%
10 | Fc1ccc(Nc2nc(-c3cccnc3)nc3ccccc23)cc1 | inconclusive [inhibitor, single point] | –
11 | O=C(NC[C@H](O)c1ccccc1)c1ccccc1 | – | inactive: -23.9%
12 | COc1ccc2c(c1OC)CCC2=O | inconclusive [inhibitor, partial curve] | –
13 | CCC(C)NC(=O)CSc1nnc(-c2cc(-c3ccc(C)cc3)nc3ccccc23)n1N (stereo not drawn) | inconclusive [inhibitor, single point] | –
14 | O=C(O)C1C2C=CC(C2)C1C(=O)Nc1cccc(C(=O)N2CCCCC2)c1 (stereo not drawn) | inconclusive [inhibitor, partial curve] | –
15 | COc1ccc(/C=C2\Sc3ccc(C(=O)N4CCc5ccccc5C4)cc3N(C)C2=O)cc1 | inconclusive [inhibitor, single point] | –
16 | CC(C)N(C(=O)c1sc2cc([N+](=O)[O-])ccc2c1Cl)C(C)C | active: 28.2 µM | –
17 | N#Cc1nc(-c2ccco2)oc1NCCN1CCOCC1 | inconclusive [inhibitor, single point] | –
18 | CCN(CC)S(=O)(=O)c1ccc(NC(=O)COC(=O)c2ccc(-n3nc(C)cc3C)cc2)cc1 | inconclusive [inhibitor, partial curve] | –
19 | CCN1C(=O)C(O)(CC(=O)c2ccccn2)c2ccccc21 (stereo not drawn) | – | inactive: -3.05%
20 | CC1(C)Cc2ccccc2-c2nc(NCCCO)n(-c3ccccc3)c(=O)c21 | inconclusive [inhibitor, partial curve] | –
21 | CC1(C)CC(=O)C=C(Nc2ccccc2O)C1 | inconclusive [inhibitor, single point] | –
22 | Cc1ccc2nc(-c3ccc(N)cc3)sc2c1S(=O)(=O)O | inconclusive [inhibitor, partial curve] | –
23 | CCn1c(C)c(/C=N/Nc2nc3ccccc3s2)c2ccccc21 | inconclusive [inhibitor, single point] | –
24 | O=C(CC1N=C2c3ccccc3N=C(SCc3ccc(F)cc3)N2C1=O)NCc1ccco1 (stereo not drawn) | inconclusive [inhibitor, partial curve] | –
25 | COc1ccc(N=c2ssnc2Cl)cc1 | active: 2.82 µM | –

Row | Compound | Potency | activity change, negative = inhibition
26 | Cn1c(SCC(=O)OCc2ccccc2)nnc1-c1ccco1 | – | inactive: -9.59%
27 | Cc1ccc(-n2nc(C(=O)O)nc2-c2ccccc2)cc1 | – | inactive: -6.41%
28 | Cc1ccc(NC(=O)CN2CCCCCC2)c(Br)c1 | inconclusive [inhibitor, single point] | –
29 | Cc1ccc(-c2cc(C(F)(F)F)c(C#N)c(SCCC#N)n2)o1 | inconclusive [inhibitor, partial curve] | –
30 | O=C(NC1CCCCC1)c1cccs1 | active: 31.6 µM | –
31 | O=C(CCSc1nc(-c2ccco2)cc(C(F)(F)F)n1)NCC1CCCO1 (stereo not drawn) | inconclusive [inhibitor, partial curve] | –
32 | CCSc1ncnc2c1sc1nc(-c3ccco3)c3c(c12)CC(C)(C)OC3 | – | inactive: -20.7%
33 | Cc1oc2nc(SCC(=O)N3CCCCC3)nc(N)c2c1C | active: 1.41 µM | –
34 | Cc1c(Cc2ccccc2)sc(NC(=O)c2ccco2)c1C(N)=O | inconclusive [inhibitor, partial curve] | –
35 | O=C(/C=C/c1ccc([N+](=O)[O-])cc1)OCC(=O)N1c2ccccc2Sc2ccccc21 | – | inactive: -14.2%
36 | Cc1ccccc1-n1cnc2cc(NCc3cccs3)ccc21 | inconclusive [inhibitor, single point] | –
37 | CC(C)(C)OC(=O)COc1cc(OCC(=O)OC(C)(C)C)c2c(=O)cc(-c3ccccc3)oc2c1 | inconclusive [inhibitor, full curve] | –
38 | O=C(COC(=O)c1cccc(S(=O)(=O)N2CCc3ccccc32)c1)Nc1ccc(Cl)cn1 | – | inactive: -3.54%
39 | Cc1ccccc1-n1c(SCC(=O)c2cc(C)n(C)c2C)nnc1-c1ccncc1 | inconclusive [inhibitor, partial curve] | –
40 | OCCn1c(CSc2nc3ccccc3n2CCO)nc2ccccc21 | inconclusive [inhibitor, partial curve] | –
41 | Cc1csc(NC(=O)c2cnc3ccccn3c2=O)n1 | inconclusive [inhibitor, partial curve] | –
42 | Cc1cc(NCCCN2CCOCC2)n2c(nc3ccccc32)c1C#N | inconclusive [inhibitor, partial curve] | –
43 | Cc1nc(N2CCN(C(=O)c3ccco3)CC2)c2oc3ccccc3c2n1 | – | inactive: -19.1%
44 | O=C1c2ccccc2NC(c2ccc3c(c2)OCCO3)N1c1ccc2c(c1)OCCO2 (stereo not drawn) | – | inactive: -21.8%
45 | CCCCC(=O)NCCc1cc2ccc(OC)cc2[nH]c1=O | inconclusive [inhibitor, single point] | –
46 | COc1ccc(-c2nnc(-c3cc(OC)c(OC)c(OC)c3)o2)cc1OC | inconclusive [inhibitor, partial curve] | –
47 | COC(=O)Nc1c(-c2ccccc2)nc2ccccn12 | inconclusive [inhibitor, partial curve] | –
48 | CCCCNC(=O)CCCn1c(=S)[nH]c2cc3c(cc2c1=O)OCO3 | active: 15.8 µM | –
49 | Oc1ccc(O)c(-c2cnns2)c1 | active: 1.41 µM | –
50 | CCCOc1ccc(-c2nc(C#N)c(N3CCC(C(N)=O)CC3)o2)cc1 | inconclusive [inhibitor, full curve] | –

Row | Compound | Potency | activity change, negative = inhibition
51 | COc1cccc(Nc2nc(N)nc(-c3oc4ccccc4c3C)n2)c1 | inconclusive [inhibitor, partial curve] | –
52 | CCCCNC(=S)Nc1ccc2nc3n(c(=O)c2c1)CCCCC3 | active: 14.1 µM | –
53 | C=CCSc1n[nH]c(-c2ccc(OC)cc2)n1 | active: 14.1 µM | –
54 | Cc1ccc(Sc2cc(C(F)(F)F)nc(N(C)C)n2)cc1 | inconclusive [inhibitor, partial curve] | –
55 | COc1ccc2c(Cl)c(-c3nnc4n3CCCCC4)sc2c1 | active: 1 µM | –
56 | CN(C)c1ccc(/C(=N\O)c2ccccc2)cc1 | inconclusive [inhibitor, partial curve] | –
57 | O=C1CCn2nc(-c3ccc(Cl)cc3)cc2N1 | – | inactive: -4.87%
58 | Cc1cc(=O)oc2cc(OCC(=O)Nc3nnc(C(C)C)s3)ccc12 | inconclusive [inhibitor, partial curve] | –
59 | O=C(c1ccccc1)N1CCN(c2ccc([N+](=O)[O-])c(NCc3cccnc3)c2)CC1 | – | inactive: -10%
60 | Cc1cccc(-n2ncc3c(NCCCn4ccnc4)ncnc32)c1 | inconclusive [inhibitor, partial curve] | –
61 | Cc1cccc(C(=O)n2c(=S)nc3ccccn32)c1 | active: 22.4 µM | –
62 | COC(=O)CSc1ccc2nnc(-c3ccc(F)cc3)n2n1 | inconclusive [inhibitor, partial curve, poor fit] | –
63 | CCCCNN | – | inactive: 1.56%
64 | CC(C)(C)c1ccc(C(=O)NCCn2c(N)c(C#N)c3nc4ccccc4nc32)cc1 | inconclusive [inhibitor, partial curve] | –
65 | C=CCOc1c2ccc(C(=O)NCc3ccc(C)cc3)cc2nn1C | inconclusive [inhibitor, partial curve] | –
66 | O=C(NNc1nc2cc3c(cc2s1)OCO3)c1ccccc1 | inconclusive [inhibitor, single point] | –
67 | Cc1c(Cl)c(C(=O)NC2C3CC4CC(C3)CC2C4)nn1C (stereo not drawn) | active: 20 µM | –
68 | COc1ccc(-c2cc(C(F)(F)F)n3nc(C(=O)N4CCCCC4)cc3n2)cc1OC | active: 0.501 µM | –
69 | COc1ccc2c(c1)C(=O)[C@@H](OC(=O)NCc1ccc3c(c1)OCO3)[C@H](c1ccc(OC)c(Br)c1)O2 | – | inactive: -16.6% and inactive: -3.86%
70 | Cn1c(N)c(C(=O)NCc2ccccc2)sc1=S | inconclusive [inhibitor, single point] | –
71 | COc1cc(Cl)c(C)cc1NC(=O)CNC(=O)Cn1cnc2ccccc2c1=O | inconclusive [inhibitor, single point] | –
72 | CC(C)CNS(=O)(=O)c1ccc(NC(=O)Cn2nc(-c3ccc(F)cc3)ccc2=O)cc1 | active: 7.94 µM | –
73 | CCCCn1nc(NC(=O)c2cccs2)c2cc3cc(OC)ccc3nc21 | inconclusive [inhibitor, partial curve] | –
